In PubChem BioAssay AID686979 (National Center for Advancing Translational Sciences (NCATS), 2013):
About 50,000 (12%) of roughly 420,000 compounds were called active. Inconclusive means that the source gave no clear call. Such entries were picked first, then a sample of the others. Calls come from the whole dose curve; as a rule, active = well fitted inhibition curve with a large enough effect; inconclusive = small, poorly fitted or top-dose-only effect; inactive = flat fitted curve, though single readings scatter. No potency is given beside an inconclusive call; the fits are too rough.

Test: qHTS for Inhibitors of human tyrosyl-DNA phosphodiesterase 1 (TDP1): qHTS in cells in presence of CPT; note: nearly all actives have a fitted effect of over 55% in size
Details: chicken DT40 Tdp1-/-;hTDP1 cells + 20 nM CPT, ATP luminescence, 48 h; activity change, negative = growth inhibition: at 46.2 µM (top of the series) unless noted
Summary of the method: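 Chicken DT40 Tdp1-/- cells complemented with human TDP1, 400 cells/well, exposed to compounds plus 20 nM camptothecin for at least 48 h at 37 C; viability read as ATP content by CellTiter-Glo luminescence.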
% is set by controls: 0 for no effect and ±100 for the full control effect; potency is the fitted concentration of half-maximal effect; tags give direction and shape of the fitted curve.

Row | SMILES | Potency | activity change, negative = growth inhibition
1 | c1ccc2c(c1)OCCc1c-2[nH]c2ccccc12 | inconclusive [inhibitor, single point] | –
2 | CN(C)c1ccc(-c2nn3c(-c4ccc(Cl)cc4)nnc3s2)cc1 | inactive | –
3 | CS(=O)(=O)c1nc2ccccc2n1Cc1ccccc1 | inconclusive [inhibitor, single point] | –
4 | c1ccc(OCc2noc(CN3CC[C@@H]4CCCC[C@H]4C3)n2)cc1 | inconclusive [inhibitor, single point] | –
5 | O=C(c1ccccc1)c1coc2c1C(=O)c1ccccc1C2=O | inconclusive [inhibitor, single point] | –
6 | Cc1ccc(S(=O)(=O)N2CCN(C(=O)c3ccc([N+](=O)[O-])cc3)C2)cc1 | inactive | –
7 | COc1ccc([C@H]2CC(=O)C=C(c3cc4ccccc4s3)C2)cc1 | inconclusive [inhibitor, partial curve] | –
8 | COc1ccc(NC(=O)CCCNC(=O)Cn2cnc3sc(C)c(C)c3c2=O)cc1Cl | inactive | –
9 | O=C(CSc1nnnn1-c1cccc(F)c1)NC1CC1 | inactive | –
10 | O=C(Cc1ccccc1)Nc1ccc2[nH]ncc2c1 | inactive | –
11 | O=C(NC(=S)Nc1ccccc1N1CCCCC1)c1ccc(F)cc1 | inactive | –
12 | O=C(COC(=O)c1cccs1)Nc1cccc(Cl)c1 | inactive | –
13 | c1cc(CNc2ccc3c(c2)OCO3)ccn1 | inactive | –
14 | Cc1ccc(-c2cccc(NC(=O)C3C(C(=O)O)[C@@H]4C=C[C@H]3C4)c2)o1 (stereo not given in full) | inactive | –
15 | COCC1CCN(C(=O)c2ccc(OC3CCN(Cc4ccccn4)CC3)cc2)C1 (stereo not given) | inactive | –
16 | Cc1nnsc1S(=O)c1ccc(Cl)cc1 (stereo not given) | inconclusive [inhibitor, partial curve] | –
17 | O=C(CN1C(=O)C2CC=CCC2C1=O)OCC(=O)c1ccc(Cl)c([N+](=O)[O-])c1 (stereo not given) | inconclusive [inhibitor, single point] | –
18 | CN(c1ccc(OCC(=O)Nc2ccc(S(N)(=O)=O)cc2)cc1)S(=O)(=O)c1ccc(F)cc1 | inconclusive [inhibitor, single point] | –
19 | Cc1ccc2nc(-c3ccc(NC(=O)COC(=O)c4ccc([N+](=O)[O-])o4)cc3)sc2c1 | inactive | –
20 | Fc1cccc(/C=N/Nc2nccnc2Cl)c1 | active: 11.6 µM | –
21 | COc1ccccc1C(=O)Nc1ccc2nc(N3CCC(C)CC3)cc(C)c2c1 | inconclusive [inhibitor, single point] | –
22 | COc1ccccc1NS(=O)(=O)c1cccc(C(=O)NCC(c2ccccc2OC)N2CCCC2)c1 (stereo not given) | inconclusive [inhibitor, single point] | –
23 | CCn1c(=O)c2cc(C(=O)N(CCCOC(C)C)Cc3ccco3)sc2c2ccccc21 | inconclusive [inhibitor, single point] | –
24 | CCN(CC)C(=O)C(=O)c1cn(CC(=O)NCC2CCCO2)c2ccccc12 (stereo not given) | inactive | –
25 | CCOc1cc(C2C(C(=O)OC)=CN(Cc3ccc(Cl)cc3)C=C2C(=O)OC)ccc1O | inconclusive [inhibitor, single point] | –

Row | SMILES | Potency | activity change, negative = growth inhibition
26 | CCC(C)(C)NC(=O)C(c1ccc(OC)cc1)N(C(=O)CCC(=O)Nc1cc(C)on1)c1ccccc1F (stereo not given) | inactive | –
27 | CCN(CC(=O)NCc1cccs1)C(=O)c1ccc(S(=O)(=O)Nc2ccccc2)cc1 | inactive | –
28 | COCC1CCCCN1C(=O)C1CCN(c2nc(-c3ccccc3)nc3c2CCC3)CC1 (stereo not given) | active: 18.4 µM | –
29 | COc1ccc(N=Cc2nc(-c3ccco3)oc2O)cc1 | inconclusive [inhibitor, single point] | –
30 | Cc1cccc(C)c1OCC(=O)Nc1cccc(S(=O)(=O)N2CCCCCC2)c1 | active: 20.6 µM | –
31 | O=C(CCc1ccccc1)NC(=S)NCc1ccco1 | inactive | –
32 | Nc1c(C(=O)NCc2ccco2)nnn1CC(=O)Nc1ccc2c(c1)OCO2 | inactive | –
33 | COc1cccc(C(=O)C2CCCN(CC3=Cc4cc(OC)ccc4OC3)C2)c1 (stereo not given) | inconclusive [inhibitor, partial curve] | –
34 | O=C(NCc1cccs1)Nc1cccc(Cl)c1 | inactive | –
35 | Cc1cc(C)c(NC(=O)Cn2c(SCC(=O)NCc3ccccc3)nc3ccccc32)c(C)c1 | inconclusive [inhibitor, single point] | –
36 | O=C(/C=C(O)/C=C/c1ccc(O)cc1)/C=C/c1ccc(O)cc1 | inconclusive [inhibitor, single point] | –
37 | O=C1Nc2ccccc2C12Nc1ccccc1-c1nc3ccccc3n12 (stereo not given) | inconclusive [inhibitor, single point] | –
38 | O=C(NCC(c1ccco1)N1CCc2ccccc21)c1ccccc1Cl (stereo not given) | inconclusive [inhibitor, single point] | –
39 | COc1ccc(C(=O)NC2CC(C)(C)Cc3c2cnn3-c2ccccc2C)o1 (stereo not given) | inconclusive [inhibitor, single point] | –
40 | CCCOc1ccccc1C1NC(=O)NC(C)=C1C(=O)OCc1ccccc1 (stereo not given) | active: 23.1 µM | –
41 | CCN(CC(=O)Nc1c(F)cccc1F)C(=O)CCCOc1ccccc1 | – | inconclusive: -30.1% [inhibitor]
42 | CCOC(=O)C1CCN(S(=O)(=O)c2cccc(-c3cn4cccnc4n3)c2)CC1 | inconclusive [inhibitor, partial curve, poor fit] | –
43 | Cc1ccc2c(c1)c1c(n2C)C(C(N)=O)CCC1 (stereo not given) | – | inconclusive: -25.6% [inhibitor]
44 | Cc1cnc(C(=O)OCC(=O)Nc2cccc(S(=O)(=O)N3CCCCC3)c2)cn1 | – | inconclusive: -31.4% [inhibitor]
45 | CC(=O)NC(c1ccc(F)c(F)c1)c1nc(-c2ccc3c(c2)OCO3)cs1 (stereo not given) | inconclusive [inhibitor, partial curve] | –
46 | O=C(CCNS(=O)(=O)c1ccc(OC(F)(F)F)cc1)Nc1cccc(S(=O)(=O)N2CCCC2)c1 | active: 18.4 µM | –
47 | CCN(c1ccccc1)S(=O)(=O)c1ccc(C(=O)NCc2ccco2)cc1 | inconclusive [inhibitor, single point] | –
48 | CCC(C)NC(=O)CNS(=O)(=O)c1ccc(C)cc1 (stereo not given) | inactive | –
49 | COc1ccc(NC(=O)CSCC(=O)N2CCN(c3cccc(C(F)(F)F)c3)CC2)cc1 | inconclusive [inhibitor, single point] | –
50 | O=c1[nH]c(=S)[nH]c2c1[C@H](C1CC1)O[C@H](CCc1ccccc1)C2 | inconclusive [inhibitor, single point] | –

Row | SMILES | Potency | activity change, negative = growth inhibition
51 | Cc1nc2ccc(NC(=O)c3cccnc3)cc2s1 | inactive | –
52 | OCCC1CN(Cc2ccc(Oc3ncccn3)cc2)CCN1C1CCCC1 (stereo not given) | – | inconclusive: -33% [inhibitor]
53 | CSCc1nnc(NC(=O)c2ccc(S(=O)(=O)N(C)C)cc2)o1 | inconclusive [inhibitor, single point] | –
54 | COc1ccc(-c2cn3cccnc3n2)cc1NC(=O)c1c(F)cccc1F | inconclusive [inhibitor, single point] | –
55 | COc1ccc(CN(C(=O)c2cccs2)c2nccs2)cc1OC | inconclusive [inhibitor, partial curve] | –
56 | COc1ccc(-c2cc(Cl)cc3c(=O)c4ccccc4n(C)c23)cc1F | active: 18.4 µM | –
57 | COc1cc(Cl)c(C)cc1NC(=O)CCn1c(=O)c2cccn2c2cccnc21 | inconclusive [inhibitor, full curve, poor fit] | –
58 | CNC(=S)N(CCc1c(C)[nH]c2ccc(Cl)cc12)Cc1cc(OC)c(OC)c(OC)c1 | inconclusive [inhibitor, single point] | –
59 | O=C(c1ccc(F)cc1)C(CN1CCOCC1)c1ccccc1 (stereo not given) | active: 1.84 µM | –
60 | COc1cccc(/C=N/n2c(-c3ccco3)nc3ccccc3c2=O)c1OC | inconclusive [inhibitor, partial curve, poor fit] | –
61 | O=C(Nc1ccccc1C(=O)O)C1=NN=CC1 | inactive | –
62 | O=C(CCCN1C(=O)c2cccnc2C1=O)Nc1ccc(F)cc1Cl | inactive | –
63 | O=C(NCCc1ccc(C(F)(F)F)cc1)C1CCC(=O)N(C2CC2)C1 (stereo not given) | inactive | –
64 | CCOC(=O)C1(Cc2cccc(OC)c2)CCN(Cc2cccc3c2OCO3)CC1 | inconclusive [inhibitor, single point] | –
65 | Cc1cc(CNC(=O)COC(=O)C2CC3CCCC(C2)C3=O)cc(C)c1O (stereo not given) | inactive | –
66 | Cc1c(-c2cccc(Cl)c2)nc2ccccc2c1C(=O)OC/C(O)=C(\C#N)c1nc2ccccc2[nH]1 | active: 14.6 µM | –
67 | CCN1CCN(CC(=O)Nc2nc3ccc(OC)cc3s2)CC1 | inactive | –
68 | CC(=O)N1CCN(S(=O)(=O)c2cccc(C(=O)NNC(=O)COc3ccc(F)cc3)c2)CC1 | inactive | –
69 | C=CC[n+]1c(-c2ccc(C)cc2)csc1NNC(=O)Nc1ccccc1 | active: 10.3 µM | –
70 | COc1ccc(N/N=C(/C(N)=O)C2=NC(C)(C)Cc3ccccc32)cc1 | active: 16.4 µM | –
71 | CN(C)S(=O)(=O)n1cc(/C=C(\NC(=O)c2ccccc2)C(=O)NCCCN2CCOCC2)c2ccccc21 | inconclusive [inhibitor, single point] | –
72 | Cc1cccc(N(CC(=O)N2CCc3ccccc3C2)S(C)(=O)=O)c1C | inactive | –
73 | CCOc1cccc2sc(N3CCN(C(=O)c4ccc5ncsc5c4)CC3)nc12 | inconclusive [inhibitor, single point] | –
74 | COc1ccc(OC)c(S(=O)(=O)Nc2cc3c(cc2N2CCCC2)n(C)c(=O)c(=O)n3C)c1 | active: 20.6 µM | –
75 | O=C(OC(C(=O)NCc1ccco1)c1ccc(Cl)cc1)c1cccs1 (stereo not given) | inconclusive [inhibitor, single point] | –
